Test system: adult patients with uncontrolled gout
Test: Open-label study of pegloticase with MTX: serum uric acid observed values and change from baseline
Type: in vivo, human
Excerpt: KXX treatment typically is monitored using regular determination of the patient's SUA levels. A reduction in the serum uric acid level relative to the SUA in the patient before KXX treatment may generally be indicative of successful treatment with KXX, alone, or co-administered with an immunosuppressive agent or therapy, such as MTX, as described herein. Collection and measurement of a patient's serum uric acid levels are known to those of skill in the art. In some embodiments, the patient's serum uric acid levels are assayed before each KXX therapy. In some embodiments, any suitable method for collecting appropriate samples and methods of measuring or quantifying uric acid levels may be used in accordance with the disclosure.
Criteria for Evaluation: Efficacy was assessed by SUA levels, tender and swollen joint counts, patient and physician global assessments of gout, joint pain, and DECT.
Patients were administered oral MTX (15 mg/week) and folate (1 mg/day) 4 weeks prior to the first pegloticase infusion (Day 1) and throughout the pegloticase treatment period. Blood was drawn prior to each infusion to measure sUA level, monitor clinical parameters, and examine for ADA development. All patients followed typical IR prophylaxis protocols (fexofenadine one day before and the morning of each infusion and acetaminophen and IV corticosteroid the morning of each infusion). […] The primary study outcome was the proportion of responders, defined as sUA<6 mg/dL for at least 80% of the time during month 6 (weeks 20, 22, and 24). All analyses were performed on a modified intent-to-treat population, defined as patients who received ≥1 pegloticase infusion.

Question: Which “sUA observed, mean” value (Week 14 - Pre-Infusion) does the source give for pegloticase here?
Answer: Its value is 0.30 mg/dL.

Question: What about the “sUA observed, median” value (Week 14 - Pre-Infusion) of the same substance?
Answer: The value was 0.30 mg/dL.

Question: And the “sUA < 6 mg/dL, %” value (Week 16 - Post-Infusion)?
Answer: The value was “(100%)”.

Question: And the “sUA observed, mean” value (Week 16 - Post-Infusion)?
Answer: Its value is 0.30 mg/dL.

Question: And the “sUA observed, median” value (Week 16 - Post-Infusion)?
Answer: The value was 0.30 mg/dL.

Question: And the “sUA < 6 mg/dL, %” value (Week 16 - Pre-Infusion)?
Answer: Its value is “(100%)”.

Question: What about the “sUA observed, mean” value (Week 16 - Pre-Infusion) of the same substance?
Answer: Its value is 0.30 mg/dL.

Question: And the “sUA observed, median” value (Week 16 - Pre-Infusion)?
Answer: Its value is 0.30 mg/dL.

Question: What about the “sUA < 6 mg/dL, %” value (Week 18 - Post-Infusion) of the same substance?
Answer: The value was “(100%)”.

Question: And the “sUA observed, mean” value (Week 18 - Post-Infusion)?
Answer: The value was 0.30 mg/dL.

Question: What about the “sUA observed, median” value (Week 18 - Post-Infusion) of the same substance?
Answer: Its value is 0.30 mg/dL.

Question: What about the “sUA < 6 mg/dL, %” value (Week 18 - Pre-Infusion) of the same substance?
Answer: The value was “(100%)”.

Question: And the “sUA observed, mean” value (Week 18 - Pre-Infusion)?
Answer: The value was 0.30 mg/dL.

Question: And the “sUA observed, median” value (Week 18 - Pre-Infusion)?
Answer: The value was 0.30 mg/dL.

Question: What about the “sUA < 6 mg/dL, %” value (Week 20 - Post-Infusion) of the same substance?
Answer: The value was “(100%)”.

Question: What about the “sUA observed, mean” value (Week 20 - Post-Infusion) of the same substance?
Answer: The value was 0.30 mg/dL.

Question: What about the “sUA observed, median” value (Week 20 - Post-Infusion) of the same substance?
Answer: Its value is 0.30 mg/dL.

Question: What about the “sUA < 6 mg/dL, %” value (Week 20 - Pre-Infusion) of the same substance?
Answer: The value was “(100%)”.

Question: What about the “sUA observed, mean” value (Week 20 - Pre-Infusion) of the same substance?
Answer: The value was 0.30 mg/dL.

Question: What about the “sUA observed, median” value (Week 20 - Pre-Infusion) of the same substance?
Answer: The value was 0.30 mg/dL.

Question: What about the “sUA < 6 mg/dL, %” value (Week 22 - Post-Infusion) of the same substance?
Answer: Its value is “(100%)”.

Question: And the “sUA observed, mean” value (Week 22 - Post-Infusion)?
Answer: Its value is 0.30 mg/dL.

Question: And the “sUA observed, median” value (Week 22 - Post-Infusion)?
Answer: The value was 0.30 mg/dL.

Question: What about the “sUA < 6 mg/dL, %” value (Week 22 - Pre-Infusion) of the same substance?
Answer: Its value is “(100%)”.

Question: And the “sUA observed, mean” value (Week 22 - Pre-Infusion)?
Answer: Its value is 0.30 mg/dL.

Question: What about the “sUA observed, median” value (Week 22 - Pre-Infusion) of the same substance?
Answer: Its value is 0.30 mg/dL.

Question: And the “sUA < 6 mg/dL, %” value (Week 24 - Post-Infusion)?
Answer: Its value is “(100%)”.

Question: And the “sUA observed, mean” value (Week 24 - Post-Infusion)?
Answer: The value was 0.30 mg/dL.

Question: What about the “sUA observed, median” value (Week 24 - Post-Infusion) of the same substance?
Answer: The value was 0.30 mg/dL.

Question: What about the “sUA < 6 mg/dL, %” value (Week 24 - Pre-Infusion) of the same substance?
Answer: The value was “(100%)”.

Question: What about the “sUA observed, mean” value (Week 24 - Pre-Infusion) of the same substance?
Answer: The value was 0.30 mg/dL.

Question: What about the “sUA observed, median” value (Week 24 - Pre-Infusion) of the same substance?
Answer: Its value is 0.30 mg/dL.

Question: What about the “sUA < 6 mg/dL, %” value (Week 26 - Pre-Infusion) of the same substance?
Answer: The value was “(100%)”.

Question: And the “sUA observed, mean” value (Week 26 - Pre-Infusion)?
Answer: Its value is 0.30 mg/dL.

Question: What about the “sUA observed, median” value (Week 26 - Pre-Infusion) of the same substance?
Answer: The value was 0.30 mg/dL.

Question: What about the “sUA < 6 mg/dL, %” value (Week 28 - Pre-Infusion) of the same substance?
Answer: Its value is “(100%)”.

Question: And the “sUA observed, mean” value (Week 28 - Pre-Infusion)?
Answer: Its value is 0.30 mg/dL.

Question: And the “sUA observed, median” value (Week 28 - Pre-Infusion)?
Answer: Its value is 0.30 mg/dL.

Question: And the “sUA < 6 mg/dL, %” value (Week 30 - Pre-Infusion)?
Answer: Its value is “(100%)”.

Question: And the “sUA observed, mean” value (Week 30 - Pre-Infusion)?
Answer: The value was 0.30 mg/dL.

Question: What about the “sUA observed, median” value (Week 30 - Pre-Infusion) of the same substance?
Answer: Its value is 0.30 mg/dL.

Question: What about the “sUA < 6 mg/dL, %” value (Week 32 - Post-Infusion) of the same substance?
Answer: Its value is “(100%)”.

Question: What about the “sUA observed, mean” value (Week 32 - Post-Infusion) of the same substance?
Answer: The value was 0.30 mg/dL.

Question: What about the “sUA observed, median” value (Week 32 - Post-Infusion) of the same substance?
Answer: Its value is 0.30 mg/dL.

Question: What about the “sUA < 6 mg/dL, %” value (Week 32 - Pre-Infusion) of the same substance?
Answer: Its value is “(100%)”.

Question: And the “sUA observed, mean” value (Week 32 - Pre-Infusion)?
Answer: The value was 0.30 mg/dL.

Question: And the “sUA observed, median” value (Week 32 - Pre-Infusion)?
Answer: Its value is 0.30 mg/dL.

Question: What about the “sUA < 6 mg/dL, %” value (Week 34 - Post-Infusion) of the same substance?
Answer: The value was “(100%)”.

Question: And the “sUA observed, mean” value (Week 34 - Post-Infusion)?
Answer: Its value is 0.30 mg/dL.

Question: And the “sUA observed, median” value (Week 34 - Post-Infusion)?
Answer: Its value is 0.30 mg/dL.

Question: What about the “sUA < 6 mg/dL, %” value (Week 34 - Pre-Infusion) of the same substance?
Answer: Its value is “(100%)”.

Question: What about the “sUA observed, median” value (Week 34 - Pre-Infusion) of the same substance?
Answer: The value was 0.30 mg/dL.

Question: What about the “sUA < 6 mg/dL, %” value (Week 36 - Post-Infusion) of the same substance?
Answer: The value was “(100%)”.

Question: And the “sUA observed, mean” value (Week 36 - Post-Infusion)?
Answer: The value was 0.30 mg/dL.

Question: And the “sUA observed, median” value (Week 36 - Post-Infusion)?
Answer: Its value is 0.30 mg/dL.

Question: What about the “sUA < 6 mg/dL, %” value (Week 36 - Pre-Infusion) of the same substance?
Answer: The value was “(88.9%)”.

Question: And the “sUA observed, median” value (Week 36 - Pre-Infusion)?
Answer: Its value is 0.30 mg/dL.

Question: And the “sUA < 6 mg/dL, %” value (Week 38 - Pre-Infusion)?
Answer: The value was “(100%)”.

Question: What about the “sUA observed, median” value (Week 38 - Pre-Infusion) of the same substance?
Answer: The value was 0.30 mg/dL.

Question: And the “sUA < 6 mg/dL, %” value (Week 40 - Pre-Infusion)?
Answer: Its value is “(100%)”.

Question: And the “sUA observed, mean” value (Week 40 - Pre-Infusion)?
Answer: The value was 0.30 mg/dL.

Question: And the “sUA observed, median” value (Week 40 - Pre-Infusion)?
Answer: The value was 0.30 mg/dL.

Question: What about the “sUA < 6 mg/dL, %” value (Week 42 - Pre-Infusion) of the same substance?
Answer: The value was “(100%)”.

Question: And the “sUA observed, mean” value (Week 42 - Pre-Infusion)?
Answer: Its value is 0.30 mg/dL.

Question: What about the “sUA observed, median” value (Week 42 - Pre-Infusion) of the same substance?
Answer: Its value is 0.30 mg/dL.

Question: What about the “sUA < 6 mg/dL, %” value (Week 44 - Pre-Infusion) of the same substance?
Answer: The value was “(100%)”.

Question: What about the “sUA observed, median” value (Week 44 - Pre-Infusion) of the same substance?
Answer: Its value is 0.30 mg/dL.

Question: What about the “sUA < 6 mg/dL, %” value (Week 46 - Pre-Infusion) of the same substance?
Answer: Its value is “(100%)”.

Question: What about the “sUA observed, mean” value (Week 46 - Pre-Infusion) of the same substance?
Answer: Its value is 0.30 mg/dL.

Question: What about the “sUA observed, median” value (Week 46 - Pre-Infusion) of the same substance?
Answer: The value was 0.30 mg/dL.

Source: patent US20230301999A1, “METHODS OF TREATING GOUT” (Horizon Therapeutics USA, Inc., priority 2020, published 2023)
